{"source": "the supplement of paper PMC8728848", "binders": {"B1": {"name": "PX15618B-bfa-464-25-464 (Bacteroides fragilis) (protein)", "chain": "DQEPPLYVNENDIFTSPTRIEATLNGLYAAIKNTGTKSLMGGKSYLVFDNRGDDVINISNNLVTLFNTYNMNVGITDAENADTWTYAYLAINKVNTFLQSLEGAREVAGENYDRYVQEAKFVRALAYYYLNNLYPTPYSVNPDAKSVPLRLTAEAGTENNNMPRSTVKQIYEHILSDLENISALDTEVNTYTGVTHATQAAANMLKMRVYMAMNEWDKAITAGELVTGYSLPEDVTLIYKAPYFSQESIFSLPMADTNIPNTQQSLAEYYYDGKIMLIDTKSGIMSKPDYSLATDKRIIAFKGEKDLLMKFTDAKTKLQWVPIFRYAETLLDLAECYANKAGGEATAKSLLKQVRGRSVDAATDPLNIDNLSGDALKEAIYNEKRLEFIGEGIRGIDIMRRGEHFIKVGENETINVGPSDEKYTWPIPQVELLLNKDINK"}}, "experiment_in_all_cases": "glycan array binding signal (z-score within array); higher = stronger binding", "details_in_all_cases": "glycan notation: IUPAC condensed, linker removed", "key": {"[1]": {"target": "Neu5Ac(a2-3)Gal(b1-4)GlcNAc(b1-6)GalNAc", "in_short": "(§1)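 The Consortium for Functional Glycomics database supplied 3228 glycan arrays, of which those lacking an available protein sequence were dropped. The binding signal, a within-array Z-score, was averaged across arrays of the same protein sequence and across linkers. Negative scores can be read as non-binding.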"}, "[2]": {"target": "Neu5Ac(a2-3)Gal(b1-4)GlcNAc(b1-6)[Gal(b1-3)]GalNAc", "in_short": "as §1"}, "[3]": {"target": "Neu5Ac(a2-3)Gal(b1-4)GlcNAc(b1-6)[Neu5Ac(a2-3)Gal(b1-3)]GalNAc", "in_short": "as §1"}, "[4]": {"target": "Neu5Ac(a2-3)Gal(b1-4)GlcNAc6S", "in_short": "as §1"}, "[5]": {"target": "Neu5Ac(a2-3)Gal(b1-4)[Fuc(a1-3)]GlcNAc", "in_short": "as §1"}, "[6]": {"target": "Neu5Ac(a2-3)Gal(b1-4)[Fuc(a1-3)]GlcNAc(b1-2)Man", "in_short": "as §1"}, "[7]": {"target": "Neu5Ac(a2-3)Gal(b1-4)[Fuc(a1-3)]GlcNAc(b1-3)Gal", "in_short": "as §1"}, "[8]": {"target": "Neu5Ac(a2-3)Gal(b1-4)[Fuc(a1-3)]GlcNAc(b1-3)Gal(b1-4)GlcNAc", "in_short": "as §1"}, "[9]": {"target": "Neu5Ac(a2-3)Gal(b1-4)[Fuc(a1-3)]GlcNAc(b1-3)Gal(b1-4)[Fuc(a1-3)]GlcNAc(b1-3)Gal(b1-4)[Fuc(a1-3)]GlcNAc", "in_short": "as §1"}, "[10]": {"target": "Neu5Ac(a2-3)Gal(b1-4)[Fuc(a1-3)]GlcNAc(b1-3)GalNAc", "in_short": "as §1"}, "[11]": {"target": "Neu5Ac(a2-3)Gal(b1-4)[Fuc(a1-3)]GlcNAc(b1-6)[Gal(b1-3)]GalNAc", "in_short": "as §1"}, "[12]": {"target": "Neu5Ac(a2-3)Gal(b1-4)[Fuc(a1-3)]GlcNAc(b1-6)[Neu5Ac(a2-3)Gal(b1-3)]GalNAc", "in_short": "as §1"}, "[13]": {"target": "Neu5Ac(a2-3)Gal(b1-4)[Fuc(a1-3)]GlcNAc6S", "in_short": "as §1"}, "[14]": {"target": "Neu5Ac(a2-3)Gal6S(b1-4)GlcNAc", "in_short": "as §1"}, "[15]": {"target": "Neu5Ac(a2-3)Gal6S(b1-4)[Fuc(a1-3)]GlcNAc", "in_short": "as §1"}, "Neu5Ac(a2-3)GalNAc": {"target": "Neu5Ac(a2-3)GalNAc", "in_short": "as §1"}, "[16]": {"target": "Neu5Ac(a2-3)GalNAc(b1-4)GlcNAc", "in_short": "as §1"}, "[17]": {"target": "Neu5Ac(a2-3)[GalNAc(b1-4)]Gal(b1-4)Glc", "in_short": "as §1"}, "[18]": {"target": "Neu5Ac(a2-3)[GalNAc(b1-4)]Gal(b1-4)GlcNAc", "in_short": "as §1"}, "[19]": {"target": "Neu5Ac(a2-3)[GalNAc(b1-4)]Gal(b1-4)GlcNAc(b1-3)GalNAc", "in_short": "as §1"}, "[20]": {"target": "Neu5Ac(a2-3)[Neu5Ac(a2-6)]GalNAc", "in_short": "as §1"}, "Neu5Ac(a2-6)Gal": {"target": "Neu5Ac(a2-6)Gal", "in_short": "as §1"}, "[21]": {"target": "Neu5Ac(a2-6)Gal(b1-3)GlcNAc(b1-3)[Gal(b1-4)GlcNAc(b1-6)]Gal(b1-4)Glc", "in_short": "as §1"}, "Neu5Ac(a2-6)Gal(b1-4)Glc": {"target": "Neu5Ac(a2-6)Gal(b1-4)Glc", "in_short": "as §1"}, "[22]": {"target": "Neu5Ac(a2-6)Gal(b1-4)GlcNAc", "in_short": "as §1"}, "[23]": {"target": "Neu5Ac(a2-6)Gal(b1-4)GlcNAc(b1-2)Man", "in_short": "as §1"}, "[24]": {"target": "Neu5Ac(a2-6)Gal(b1-4)GlcNAc(b1-2)Man(a1-3)Man(b1-4)GlcNAc(b1-4)GlcNAc", "in_short": "as §1"}, "[25]": {"target": "Neu5Ac(a2-6)Gal(b1-4)GlcNAc(b1-2)Man(a1-3)[Gal(b1-4)GlcNAc(b1-2)Man(a1-6)]Man(b1-4)GlcNAc(b1-4)GlcNAc", "in_short": "as §1"}, "[26]": {"target": "Neu5Ac(a2-6)Gal(b1-4)GlcNAc(b1-2)Man(a1-3)[GlcNAc(b1-2)Man(a1-6)]Man(b1-4)GlcNAc(b1-4)GlcNAc", "in_short": "as §1"}, "[27]": {"target": "Neu5Ac(a2-6)Gal(b1-4)GlcNAc(b1-2)Man(a1-3)[GlcNAc(b1-4)][Neu5Ac(a2-6)Gal(b1-4)GlcNAc(b1-2)Man(a1-6)]Man(b1-4)GlcNAc(b1-4)GlcNAc", "in_short": "as §1"}, "[28]": {"target": "Neu5Ac(a2-6)Gal(b1-4)GlcNAc(b1-2)Man(a1-3)[Man(a1-6)]Man(b1-4)GlcNAc(b1-4)GlcNAc", "in_short": "as §1"}}, "note": "The other results are listed elsewhere or left out.", "data": [{"binder": "B1", "values": [{"measurement": "glycan array binding signal (z-score)", "setting": "[1]", "result": -0.278}, {"measurement": "glycan array binding signal (z-score)", "setting": "[2]", "result": 0.439}, {"measurement": "glycan array binding signal (z-score)", "setting": "[3]", "result": -0.318}, {"measurement": "glycan array binding signal (z-score)", "setting": "[4]", "result": -0.084}, {"measurement": "glycan array binding signal (z-score)", "setting": "[5]", "result": -0.46}, {"measurement": "glycan array binding signal (z-score)", "setting": "[6]", "result": -0.417}, {"measurement": "glycan array binding signal (z-score)", "setting": "[7]", "result": -0.393}, {"measurement": "glycan array binding signal (z-score)", "setting": "[8]", "result": -0.434}, {"measurement": "glycan array binding signal (z-score)", "setting": "[9]", "result": -0.12}, {"measurement": "glycan array binding signal (z-score)", "setting": "[10]", "result": 0.124}, {"measurement": "glycan array binding signal (z-score)", "setting": "[11]", "result": -0.597}, {"measurement": "glycan array binding signal (z-score)", "setting": "[12]", "result": 0.089}, {"measurement": "glycan array binding signal (z-score)", "setting": "[13]", "result": -0.804}, {"measurement": "glycan array binding signal (z-score)", "setting": "[14]", "result": -0.187}, {"measurement": "glycan array binding signal (z-score)", "setting": "[15]", "result": -0.819}, {"measurement": "glycan array binding signal (z-score)", "setting": "Neu5Ac(a2-3)GalNAc", "result": 0.178}, {"measurement": "glycan array binding signal (z-score)", "setting": "[16]", "result": -0.311}, {"measurement": "glycan array binding signal (z-score)", "setting": "[17]", "result": -0.259}, {"measurement": "glycan array binding signal (z-score)", "setting": "[18]", "result": -0.608}, {"measurement": "glycan array binding signal (z-score)", "setting": "[19]", "result": 0.625}, {"measurement": "glycan array binding signal (z-score)", "setting": "[20]", "result": -0.496}, {"measurement": "glycan array binding signal (z-score)", "setting": "Neu5Ac(a2-6)Gal", "result": -0.353}, {"measurement": "glycan array binding signal (z-score)", "setting": "[21]", "result": -0.4}, {"measurement": "glycan array binding signal (z-score)", "setting": "Neu5Ac(a2-6)Gal(b1-4)Glc", "result": -0.015}, {"measurement": "glycan array binding signal (z-score)", "setting": "[22]", "result": -0.437}, {"measurement": "glycan array binding signal (z-score)", "setting": "[23]", "result": -0.392}, {"measurement": "glycan array binding signal (z-score)", "setting": "[24]", "result": -0.143}, {"measurement": "glycan array binding signal (z-score)", "setting": "[25]", "result": -0.017}, {"measurement": "glycan array binding signal (z-score)", "setting": "[26]", "result": 0.22}, {"measurement": "glycan array binding signal (z-score)", "setting": "[27]", "result": 0.17}, {"measurement": "glycan array binding signal (z-score)", "setting": "[28]", "result": -0.272}]}]}
